The whole screen tested about 310,000 compounds, of which about 14,000 (4.5%) showed an effect of 50% or more. Effects have a minus sign here. Some of the results follow.
Each molecule was assayed against human ether-à-go-go-related gene (hERG) potassium channel (human, UniProt Q12809) (assay: primary screen, population patch clamp on CHO cells stably expressing hERG).
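Further: peak tail current of the secondary pulse compared with the same well before compound.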

human ether-à-go-go-related gene (hERG) potassium channel, sequence (Q12809 whole entry, looked up): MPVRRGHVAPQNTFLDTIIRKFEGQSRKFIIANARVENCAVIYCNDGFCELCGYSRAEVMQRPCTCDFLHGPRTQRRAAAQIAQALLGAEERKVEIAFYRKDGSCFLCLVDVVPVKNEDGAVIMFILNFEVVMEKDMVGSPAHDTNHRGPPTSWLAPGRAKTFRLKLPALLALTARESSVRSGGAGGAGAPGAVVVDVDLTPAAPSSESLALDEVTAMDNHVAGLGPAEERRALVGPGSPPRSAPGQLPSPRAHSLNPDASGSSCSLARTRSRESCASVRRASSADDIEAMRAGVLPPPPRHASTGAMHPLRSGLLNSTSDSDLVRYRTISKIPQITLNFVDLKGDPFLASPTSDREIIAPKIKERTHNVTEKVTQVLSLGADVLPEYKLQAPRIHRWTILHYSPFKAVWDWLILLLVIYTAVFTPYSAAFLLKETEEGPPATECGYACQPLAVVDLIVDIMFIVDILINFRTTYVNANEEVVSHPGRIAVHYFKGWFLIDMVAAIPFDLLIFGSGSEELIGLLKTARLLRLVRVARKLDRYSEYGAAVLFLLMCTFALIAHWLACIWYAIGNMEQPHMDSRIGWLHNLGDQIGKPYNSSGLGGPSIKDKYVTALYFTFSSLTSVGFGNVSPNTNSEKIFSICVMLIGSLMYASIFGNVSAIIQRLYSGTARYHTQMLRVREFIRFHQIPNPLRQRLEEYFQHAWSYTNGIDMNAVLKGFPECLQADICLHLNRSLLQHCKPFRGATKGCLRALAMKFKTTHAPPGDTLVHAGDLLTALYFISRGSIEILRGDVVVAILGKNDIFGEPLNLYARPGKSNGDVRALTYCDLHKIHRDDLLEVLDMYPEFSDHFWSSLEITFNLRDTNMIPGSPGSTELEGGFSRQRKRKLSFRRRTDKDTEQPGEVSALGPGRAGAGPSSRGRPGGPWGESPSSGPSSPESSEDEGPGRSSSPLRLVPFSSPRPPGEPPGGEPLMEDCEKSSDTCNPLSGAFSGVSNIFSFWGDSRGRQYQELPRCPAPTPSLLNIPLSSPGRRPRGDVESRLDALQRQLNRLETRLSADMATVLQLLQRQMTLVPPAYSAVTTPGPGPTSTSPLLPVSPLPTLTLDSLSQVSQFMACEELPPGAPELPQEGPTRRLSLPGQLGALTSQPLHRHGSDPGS

| SMILES | hERG current change (%, negative = inhibition) at 10uM [%] |
| --- | --- |
| FC(F)(F)c1cc(-c2cccs2)nc2nc(N3CCOCC3)sc12 | 2.27 |
| COc1ccc(CN2C(=O)CSC2c2ccccn2)cc1 (centres unmarked) | 7.85 |
| COc1ccc(/C=N/NC(=O)c2nc(Cl)c(Cl)c(N)c2Cl)cc1COc1ccc(F)cc1F | 5.74 |
| COc1nc2ccccc2c(=O)n1-c1ccc(Cl)cc1 | -7.69 |
| COCCCN1C(=O)C(=O)/C(=C(/O)c2ccc(S(=O)(=O)N3CCOCC3)cc2)C1c1ccc(OC)cc1 (centres unmarked) | 16.6 |
| CCCCc1nc2ccccc2n1CC(=O)NN | 16.3 |
| COC(=O)c1ccc(CSc2nnc(-c3ccccc3)n2C)o1 | -2.29 |
| COc1cc(S(=O)(=O)N(Cc2cccnc2)Cc2cccc(OC)c2OC)ccc1-n1cnnn1 | -46.5 |
| COC(=O)C1=C(C(=O)c2ccccc2)C(c2ccccc2)n2nnnc2N1 (centres unmarked) | 10.2 |
| CCC1CCc2sc(C(=O)N(C)CC(=O)Nc3ccc(OC)cc3)cc2C1 (centres unmarked) | -18.2 |
| CC(C)(C)NC(=O)CN(C(=O)CN1C(=O)C(=O)c2ccccc21)C(C)(C)C | -1.42 |
| O=C1c2ccccc2C(=O)N1Cc1nc(-c2ccncc2)no1 | 5.94 |
| C=CCNC(=O)N1CCC(n2nccc2NC(=O)CCCc2ccccc2)CC1 | -9.61 |
| COc1ccc(N(C(=O)c2snc(C(N)=O)c2N)C(C(=O)NC2CCCC2)c2cccs2)cc1OC (centres unmarked) | -1.74 |
| CC(=NCCCn1ccnc1)c1c(C)[nH]n(-c2ccc([N+](=O)[O-])cc2)c1=O | -69.3 |
| O=S(=O)(NCCc1ccccc1)c1ccc(Br)cc1 | -4.76 |
| CCn1cc(-c2ccnc3cc(C(=O)O)nn23)c(C)n1 | 14.9 |
| C=C(C)CSc1nnc2n(N)c(=O)c3ccccc3n12 | 1.6 |
| COc1ccc(/C=C/c2c(-c3ccc(OC)cc3)oc3ccc(-c4ccc(OC)cc4)cc23)cc1 | -8.24 |
| O=C(NCc1cccs1)c1ccc2c(c1)ncn2C1CCCC1 | -35 |
| CCCCNC(=O)CN1C(=O)NC2(CCOc3ccccc32)C1=O (centres unmarked) | 8.13 |
| CCC(C(=O)NC1CCCC1)N(Cc1ccc2c(c1)OCO2)C(=O)c1snc(C(N)=O)c1N (centres unmarked) | -8.13 |

| SMILES | hERG current change (%, negative = inhibition) at 10uM [%] |
| --- | --- |
| O=C(Cc1ccc2c(c1)OCCO2)N/N=C/c1ccco1 | -9.26 |
| O=C(Nc1ccc(Br)cc1)C1CC(O)CN1C(=O)Oc1ccccc1 (centres unmarked) | 14.4 |
| Cc1cc(C)c(NC(=O)CN2CCN(C)CC2)c(C)c1 | 6.42 |
| O=C(CCS(=O)(=O)c1cccc2nsnc12)NCc1ccccc1Cl | 16.6 |
| COCCCN(CC(=O)Nc1ccc(N2CCOCC2)cc1)S(=O)(=O)c1ccc(C)cc1 | 22.8 |
| COC(=O)c1sc(NC(=O)C(C)c2ccccc2)nc1C (centres unmarked) | -2.3 |
| COC(=O)C1=C(c2ccccc2OCc2ccccc2)C[C@@H]2CC[C@H]1N2C(=O)NCc1cccc(F)c1 | 9.86 |
| Cc1cc(C(=O)CN2C(=O)NC3(CCCc4ccccc43)C2=O)c(C)n1Cc1ccccc1 (centres unmarked) | 9.25 |
| Cn1cc(SCC(=O)NCCc2ccccc2)c2ccccc21 | -0.731 |
| CC(CN(C(N)=O)c1ccccc1O)C(=O)O (centres unmarked) | -6.13 |
| CCCc1cc(=O)n2[nH]c(Cc3ccccc3)nc2n1 | 6.61 |
| CC(=O)COc1ccc2c(C)c(-c3ccccc3)c(=O)oc2c1 | 8.67 |
| O=C(NCCCN1CCCC1)c1ccc(CS(=O)(=O)c2c(Cl)cccc2Cl)o1 | -10.5 |
| COC1CCCCC1NS(=O)(=O)c1ccccc1 (centres unmarked) | 5.01 |
| CCCCC(=O)N=c1sc2cc(S(C)(=O)=O)ccc2n1C | -0.473 |
| Cc1ccc(CSCC(=O)NCc2cccnc2)cc1 | 7.04 |
| CC1(C)NC(=O)N(CC(O)CN(c2ccccc2)S(=O)(=O)c2ccccc2[N+](=O)[O-])C1=O (centres unmarked) | 13.7 |
| CCOC(=O)C1=C(C)NC(SC)=C(C#N)C1CC(C)C (centres unmarked) | -12.3 |
| O=C1c2ccccc2C(Nc2ccccc2)N1Cc1ccc2c(c1)OCO2 (centres unmarked) | -0.624 |
| CCCCOC1(c2ccccc2)NC(=S)NN=C1c1ccccc1 (centres unmarked) | 9.03 |
| CCN(Cc1cc2ccccc2[nH]c1=O)C(=O)C(C)C | -12.8 |
| CC(C)(CNC(=O)/C=C/c1ccc(F)cc1)CNC(=O)/C=C/c1ccc(F)cc1 | -26.3 |

| SMILES | hERG current change (%, negative = inhibition) at 10uM [%] |
| --- | --- |
| O=C(Cn1nnc2ccccc21)NCc1ccccc1 | 4.47 |
| CSCCC(N=C(NS(=O)(=O)c1ccc(C)cc1)c1ccccc1)C(=O)O (centres unmarked) | 0.808 |
| CC1SC(c2ccccc2)N(CC(O)c2ccc([N+](=O)[O-])cc2)C1=O (centres unmarked) | -80.6 |
| CC(=O)Nc1sc2c(c1C(c1ccccn1)N1CCCC1)CCCC2 (centres unmarked) | -10 |
| Cc1ccc(-c2cc(C(F)F)n3ncc(C(=O)N4CCCc5ccccc54)c3n2)cc1 | 3.94 |
| CCN(c1ccccc1)S(=O)(=O)c1cc(NC(=O)CSc2n[nH]c(=O)[nH]c2=O)ccc1Cl | 10.4 |
| O=C(CSc1nnc(Nc2ccccc2F)s1)Nc1cccc(S(=O)(=O)N2CCCCC2)c1 | -6.58 |
| O=c1ccn(Cc2ccccc2Cl)cc1 | 8.8 |
| COc1ccc(OC)c(NC(=O)NNC(=O)COc2ccc(-c3ccccc3)cc2)c1 | -18 |
| Cc1ccc(/C=[N+](/C)[O-])cc1 | 13.8 |
| O=C(NCC(c1ccco1)N1CCc2ccccc21)c1ccccc1Br (centres unmarked) | -29.3 |
| CCc1nc(N2CCN(CC(=O)NCC3CCCO3)CC2)c(C#N)c2c1COC(C)(C)C2 (centres unmarked) | -0.194 |
| CC(C)CNC(=O)C1CCN(CC2CCCCC2)CC1.O=C(O)C(=O)O | 8.99 |
| S=c1[nH]nc(Cc2ccccc2)n1Cc1ccco1 | -5.08 |
| CCn1cc(C(=O)N(C)CC(OC)OC)c(=O)c2cc(S(=O)(=O)N3CCOCC3)ccc21 | 14 |
| c1ccc(-c2ccc(Oc3cc(N4CCOCC4)nc(-c4ccccc4)n3)cc2)cc1 | 15 |
| Cc1cc(C(C)(C)CC(C)(C)C)ccc1OCCOCC[N+](C)(C)Cc1ccccc1.[Cl-] | -80.9 |
| COc1cccc(C2C(C#N)=C(N)SC(c3ccccc3)C2[N+](=O)[O-])c1 (centres unmarked) | 7.43 |
| O=C(NNc1nc2cc3c(cc2s1)OCO3)c1ccc(F)cc1 | 2.26 |
| CC(C)(C)NC(=O)c1ccc2c(c1)N(CC(=O)N1CCN(c3ccccc3F)CC1)C(=O)C(C)(C)O2 | -2.41 |
| O=C(N=C1SC2CS(=O)(=O)CC2N1c1ccc(Cl)cc1)C1CCCO1 (centres unmarked) | 8.45 |
| O=C(CSc1nnc(-c2ccco2)o1)c1ccc[nH]1 | 8.21 |

| SMILES | hERG current change (%, negative = inhibition) at 10uM [%] |
| --- | --- |
| CCc1ccc(-n2cc(-c3ccc([N+](=O)[O-])cc3)[nH]c2=S)cc1 | 7.22 |
| CC(=O)Nc1cccc(C2=CC(c3ccco3)n3ncnc3N2)c1 (centres unmarked) | 1.29 |
| O=C(CCc1ccccc1)N/N=C\C1CC=CCC1 (centres unmarked) | 7.94 |
| CCc1ccccc1N(C(=O)c1ccco1)C(C(=O)NC1CCCC1)c1cccnc1 (centres unmarked) | -15.8 |
| O=c1c2ccccc2nc2n1C(CSc1ccccc1)CS2 (centres unmarked) | -19.6 |
| Cc1nn(-c2ccccc2)c(N2CCCC2)c1/C=C1\N=C(c2ccccc2)OC1=O | 11.7 |
| COc1ccccc1-n1c(SCC(=O)Nc2cc(C)on2)nc2c([nH]c3ccccc32)c1=O | 0.118 |
| Nc1c(C(=O)[O-])sc2nc(-c3ccccc3)cc(-c3ccc(Cl)cc3)c12 | 23 |
| C=Cc1ccc(CN2CCCN(Cc3ccc(Cl)cc3)S2(=O)=O)cc1 | 18.1 |
| O=C(CCN1C(=O)c2ccccc2C1=O)Nc1cccnc1 | -5.04 |
| CCCCCC(=O)Nc1cccc(C2=NOC3(C2)C[C@@H](C(N)=O)N(C(=O)Cc2ccc([N+](=O)[O-])cc2)C3)c1 (some centres unmarked) | -38.1 |
| CCc1ccc(NC(=O)CC2C(=O)NCCN2C(=O)c2ccccc2OC)cc1 (centres unmarked) | 9.63 |
| O=C(CCS(=O)(=O)c1ccc(Br)cc1)N1CCC2(CC1)OCCO2 | -1.34 |
| COc1cccc(-n2c(CN3CCN(Cc4ccccc4)CC3)nc3ccc([N+](=O)[O-])cc3c2=O)c1 | -52.8 |
| CCOC(=O)c1c(=O)n(O)c2ccc(OC)cc2[n+]1[O-] | -4.62 |
| Cc1ccccc1-n1nc2c(c1NC(=O)CC(C)C)CS(=O)C2 (centres unmarked) | 13.6 |
| COc1ccc(-n2c(SCC(=O)NCC3CCCO3)nc3c(c2=O)SCC3)cc1OC (centres unmarked) | 1.12 |
| CCCCOC(=O)CSC1=C(C#N)C(c2ccccc2OCC)C(C#N)C(=O)N1 (centres unmarked) | 4.13 |
| C/C(=N\N=C(N)N)c1ccc(Cl)cc1 | -42.8 |
| COc1ccc(COC(=O)C2=C(C)NC(=O)NC2c2cc(OC)ccc2OC)cc1 (centres unmarked) | 10.4 |

From paper PMC4336329 (PLoS ONE, 2015)
